Among the data in PubChem BioAssay (NCI) are growth values, retold here.

What all share (assay): NCI-60 one-dose screen, 48 h (100 = growth as untreated, 0 = no growth, -100 = all killed)
The subject of assay [1] is CAKI-1 renal. The note with it: 2.5 mM.
Assay [2] has as its system A498 renal. Conditions: 2.5 mM.
Assay [3] relates to CCRF-CEM leukemia. Conditions: 2.5 mM; runs of 1991.

Molecules are shown by their SMILES. Some compounds were tested as several samples or in several runs, with calls that do not always agree.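 96-well plates, one dose, 48 hours. Percent growth reported; active if below 10.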 Not every entry of the source has a single result; some have several. This list holds those alone. An entry can have further records. This drug was run again and again over the years, at its own concentration, as given; one value stands for one run. Additions like (4×) say how often a value occurs here.

With `O=c1[nH]cc(F)c(=O)[nH]1`, the growth result in assay [1] (runs of 1997) is “active: -8.23, -1.66, -22.6, -28.5, 3.72, -50.2, -41.7, -32.6, -33.4, 5.09, -13.2, -52.9, -38, -6.46, 7.63, 0.231, -8.45, -1.04, -52.4, -31.2, -34.7, -8.33, -21.8, 1.27, -20.9, -28.8, 0.238, -35.6, -13.3, -46.8, 4.41, -7.04, -18, 1.08, -28.2, 4.13, -31.9% and inactive: 19.6, 98.5, 24.2, 10.6, 13.5, 34.4, 16.5, 19.5, 18.1%”; in assay [1] (runs of 1998), “active: -37.9, -41.8, -23.9, -56.9, -40.2, -45.7, 1.95, -49, -4.08, -41.9, 2.95, -43.7, -21.2, -18.6, -2.68% and inactive: 30.3, 22.3, 25.2, 15, 11.1, 18.6, 44, 18.4%”; in assay [1] (runs of 1999), “inactive: 61.7%, 24.4% and active: 5.04, 0.392, -14, -40, -84.8, -2.38, -64, -75.6, -83.8, 1.73, -3.17, -32.8, -97.5, -100, -90.4%”; in assay [1] (runs of 2000) it was “active: 6.33%, -70.1% (2×), -72.2%”; in assay [2] (runs of 1991), “inactive: 98.8, 12.1, 16.5, 35.3, 26.9% and active: -1.78, -18.5, -11.2 (2×), -27.5, -25, -6.21, -16.2, -16.5, -34.8, 5.09, -33.5, 3.37, -24.8%”; in assay [2] (runs of 1992), “active: -0.878, -16.1, 1.19 (2×), -9.81, -33.5, -30, -9.94, 1.21, -22.6, -12.2, -15.7, -2.79, -17.8, 7.57, 4.47, -4.87, -6.6, 3.35, -12.9, -57.3, -22.1, -23.9, -7.19, -3.15, -3.46, -2.22, -2.19, 8.33, -44.7, -0.978, -4.05, -15.1, -31.5, -10.7, -66.6 (2×), -15.6, -1.88, -10.6, -30.2, -12.6, -33.3, -66.7, 0.291, -31.7, -42.4, -47.2 (2×), 0.991, 0, 6.24, -42.1, -56.2, -28.3, -62.2, -55.1, 2.47, -15.5, -4.12 (2×), -6.81, -67.1, -42.7, -57.7, -76.6, -25.3, -31.8, 2.44, -23.1, -32.9, -51.3, -54.7, -55, -20.2, -22.8, -33.1, -36.6, -22.9, -47.1, -70.9, -14.6 (2×), -13.4, -32.4, -44.2, 2.85, 3.34, -17, -34.2, -50.7, -14.5, -19.1% and inactive: 11.2, 21.3, 35.6, 22.2, 50.5, 13.5, 27.8, 64.4%”. The growth result is “active: -38.5, -62.5, -50.8, -20, -20.3 (2×), -39.1, -9.12, -3.92, -4.01, -14.8, -1.73, -16, -9.25, -47.8, -11.9, -41.4, 2.03, -43.8, 2.8, -29.9, 0.998, -31.3, -0.896, -37.2, -5.39% and inactive: 21.7, 42, 54.9, 14.8, 16.9, 23.4, 34.1%” in assay [2] (runs of 1993); “active: -43.8, -16.8, -2.71, -4.9, -48.4, -11.7, -52.6, -3.16, -11.3, -20.6, -26, -47.7, 1.85, -13.1, -62.5 (2×), -0.913, -17.5, -37.4, -8.71, -21, -28.1, 0, -61.1, -56.6, -16.4% and inactive: 20.1%” in assay [2] (runs of 1994); “active: -2.61, -38.5, -47.9, -49.4, -64.8, -38.3, -19.7, -29.9, -40.1, -10.4, -32, -48.4, -32.3, -21.8, -34.2, -23, -9.21, -46.1, -31.1, 8.19, -46, -75.7, -60.7, -4, 5.61, -66.5, -22.3, -23.2, -45.5, -64.3, -24.4, -78.7% and inactive: 12.4, 15.7, 13.8, 12.9, 22.6%” in assay [2] (runs of 1995); “active: 5.63, -24.3, -40.3, -18.5, -18.7, -16.9, -24.1, -34.9, -58, -61.7, -64.9, 1.78, -14.9, -8.32, 7.29, 5.86, 4.94, 9.14, -30.8 (2×), -12.4, 1.58, -41.3, -36.5, -14.2, -3.67, 8.81, 1.86, -36.8% and inactive: 10.9, 16, 54.4, 35, 38.8, 37.2, 20.4, 19.9, 21.4, 19.4%” in assay [2] (runs of 1996); “inactive: 37.5, 10.4, 36.1, 72.7, 47.4, 19, 22.5, 40.7, 44.5, 17.2% and active: -4.13, -100, -23.6, -18.4, -20, -31.4, -24.7, -49.9, -41.1, -7.14, -8.07, -26.2, -39.1, -1.61, -36.8, -52.3, -60.4, -22.3, -68, -48.5, -13.5, -7.72, -56.1, -62.4, -43.6, 6.51, -13.3, -27.3%” in assay [2] (runs of 1997); “active: -16.1, -27.9, -2.66, -31.2, -18.3, -18.1, -37.3, -13.3, -8.9, -30.1, -51.2, -31.6, -40.5, -53.8, -81.7, -73.7, -67.2% and inactive: 24.5%, 26.8%” in assay [2] (runs of 1998). For the same compound, the growth entry in assay [2] (runs of 1999) is “inactive: 62.8% and active: -14.1, -38.7, -42.1, -11.3, -100 (2×), -66.6, -33.7, -91, 0.554, -86.7, -61.6, -89, -73.5, -83.6%”; in assay [2] (runs of 2000) it was “active: -93.7, -67.8, -68.5, -99.8%”; in assay [3], “inactive: 16.4, 23.4, 19.1, 22.6, 20.3, 23.9, 18.7, 76.7, 19.3, 21.2, 34.5, 23.2, 49.2, 20.6, 15.8, 31, 27.1, 39% and active: -4.34%, 5.91%”.
